# Assay results from patent publication US8415399B2, “Retrovirus-infection inhibitor” (Nagasaki University, priority 2006, dated 2013).
# Legend:
# Test in all cases: Cytotoxicity test: cell count, cell proliferation
# NP2/CD4/X4 cell = conditions: Homo sapiens, 48 h, read-out: concentration to suppress cell proliferation by 50%
# TE671/CD4 cell = format: cell-based; conditions: Homo sapiens, TE-671, 48 h, 2 days culture, read-out: concentration to suppress cell proliferation by 50%
# HeLa/CD4 cell = format: cell-based; conditions: Homo sapiens, 48 h, 2 days culture, read-out: concentration to suppress cell proliferation by 50%
smiles,measurement,setting,value
"CC(C)=CCC/C(C)=C/CC/C(C)=C/CC/C(C)=C/C(=O)O [GGA, geranylgeranoic acid]",IC50,NP2/CD4/X4 cell,20 µM
same,IC50,TE671/CD4 cell,25 µM
same,IC50,HeLa/CD4 cell,20 µM
